In PubChem BioAssay AID488969 (Vanderbilt High Throughput Screening Facility, 2010):
Over roughly 110,000 compounds, “z-score” has its median near -0.1; the highest 2% begin near 2. This is one part of the list. Calls of active or inactive are those of the source.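 How the source made its calls: active means z-score in the third read window above 3 or below -3; inactive means the rest.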

Target: Metabotropic glutamate receptor 8 (Rattus norvegicus) (UniProt P70579)
Assay: mGluR8 Gi/Go-coupled signaling modulation – cell-based, rat, thallium flux, HTS, primary screen (AID 488969)
Conditions: HEK293 rat mGluR8, GIRK (G protein-gated inwardly rectifying potassium channel) thallium flux, FluoZin2; at 10 µM; stronger effect = higher value; submaximal glutamate (EC20) added with thallium

Chain of UniProt P70579 (P70579 whole entry, looked up): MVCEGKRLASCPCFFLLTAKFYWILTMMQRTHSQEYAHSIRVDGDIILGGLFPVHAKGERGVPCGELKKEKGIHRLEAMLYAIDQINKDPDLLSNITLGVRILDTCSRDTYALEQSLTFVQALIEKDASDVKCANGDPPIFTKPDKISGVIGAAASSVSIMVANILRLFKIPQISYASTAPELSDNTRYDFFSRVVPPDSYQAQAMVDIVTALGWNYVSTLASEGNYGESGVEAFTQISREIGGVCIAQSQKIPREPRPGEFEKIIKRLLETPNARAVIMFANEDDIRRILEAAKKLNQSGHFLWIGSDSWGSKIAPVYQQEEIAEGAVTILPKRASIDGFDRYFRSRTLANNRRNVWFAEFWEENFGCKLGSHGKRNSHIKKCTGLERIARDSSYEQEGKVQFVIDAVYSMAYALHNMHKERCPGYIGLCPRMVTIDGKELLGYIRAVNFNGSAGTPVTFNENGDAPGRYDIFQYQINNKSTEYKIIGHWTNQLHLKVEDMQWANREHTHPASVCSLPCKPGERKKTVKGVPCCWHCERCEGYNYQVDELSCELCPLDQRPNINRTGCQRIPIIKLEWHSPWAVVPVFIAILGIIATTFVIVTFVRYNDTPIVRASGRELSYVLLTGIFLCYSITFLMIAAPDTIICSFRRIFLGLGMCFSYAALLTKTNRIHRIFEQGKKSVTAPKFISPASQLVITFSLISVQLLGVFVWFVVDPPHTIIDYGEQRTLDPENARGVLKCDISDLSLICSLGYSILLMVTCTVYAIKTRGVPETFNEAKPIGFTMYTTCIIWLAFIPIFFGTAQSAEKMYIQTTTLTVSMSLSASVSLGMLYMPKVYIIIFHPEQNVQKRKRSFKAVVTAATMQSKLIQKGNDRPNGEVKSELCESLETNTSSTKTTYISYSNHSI

| Compound | z-score |
| --- | --- |
| COc1ccc(CNC(=O)Nc2ccc(C)cc2)cc1 | 0.114 |
| CCCc1c(O)nc(SCCN(CC)CC)[nH]c1=O | 0.609 |
| CC1CCCN(C2=C(Cl)C(=O)N(c3cccc(Cl)c3)C2=O)C1 (stereo unspecified) | 0.0523 |
| CCCOc1ccc(CC(=O)NCC2(c3ccccc3)CCOCC2)cc1OC | -0.693 |
| COC(=O)CN1C(=O)C2(OCCCO2)c2ccccc21 | -0.288 |
| O=C(Nc1ncc2c(n1)-c1ccccc1OC2)c1ccc(Cl)cc1 | -0.202 |
| COc1ccc(N2CCN(C(=O)CCCn3c(=O)[nH]c4ccsc4c3=O)CC2)cc1 | 0.0781 |
| O=C(Cn1c(=O)oc2ccccc21)Nc1nnc(N2CCCCCC2)s1 | -0.181 |
| CN(C)/C=C1\C(=O)Nc2ccccc21 | -0.00898 |
| Cc1cccc(NC(=S)NC(=O)c2cc(-c3ccccc3)nc3ccccc23)c1 | active: 5.14 |
| O=C(Oc1ccc2c3c(c(=O)oc2c1)CCC3)c1ccco1 | -0.36 |
| Cc1ccc(C(=O)/C=C/c2ccc(-c3ccccc3[N+](=O)[O-])o2)cc1 | -0.0214 |
| Cc1cc(S(=O)(=O)N2CCC(NC(=O)C34CC5CC(CC(C5)C3)C4)CC2)ccc1-n1cnnn1 | 0.165 |
| c1ccc(-c2nnc3ccc(N4CCC5(CC4)OCCO5)nn23)cc1 | -0.675 |
| CC(CC(=O)Nc1ccncc1)c1ccccc1 (stereo unspecified) | 0.044 |
| COc1cccc(/C=N/NC(=O)CC2C(=O)NN=C2C)c1O (stereo unspecified) | -0.287 |
| Cc1ccc2nc(Nc3ccc4[nH]c(=O)[nH]c4c3)c(-n3nc(C)cc3C)nc2c1 | 0.425 |
| O=C(COC(=O)C1c2ccccc2Oc2ccccc21)Nc1ccc2c(c1)OCO2 | -0.567 |
| CC(C)(C)C(=O)NCCCc1nc2ccccc2n1CCCOc1ccc(Cl)cc1 | -0.459 |
| O=C(CN1C(=O)NC2(CCCCCC2)C1=O)c1ccc2c(c1)OCCO2 | 1.64 |
| CCc1cc2cc(C)cc(C)c2nc1SCC(=O)N1CCCC1 | 0.461 |
| CC1(C)CC(=O)c2cc(OCC(=O)NCCN3CCCc4ccccc43)ccc2O1 | 0.681 |
| CCOc1ccc(S(=O)(=O)Nc2ccc(F)cc2)c(C)c1C | -0.0918 |

| Compound | z-score |
| --- | --- |
| CCOc1ccc(-c2nnn(CCC(=O)O)n2)cc1OC | -0.13 |
| C(=N\n1cnnc1)/c1cn(-c2cccs2)nc1-c1ccccc1 | -1.09 |
| COc1cccc(NC(=O)Cn2cc(C#N)c3ccccc32)c1 | 1.47 |
| Nc1ncc(Br)cc1Br | -0.156 |
| O=C(NC1CCCCC1)N(Cc1cc2cc3c(cc2[nH]c1=O)OCCO3)C1CCCCC1 | 0.0096 |
| CCCCn1c(-c2ccoc2C)n[nH]c1=S | 0.216 |
| O=C(O)/C=C/c1ccc2c(-c3ccccc3)onc2c1 | -0.175 |
| CCn1c(COc2cccc(C)c2C)nnc1SCC(=O)N1CCN(c2ccc(OC)cc2)CC1 | -0.33 |
| Cn1ncc(C#N)c1NC(=O)C1CC(c2ccc(Cl)cc2)=NO1 (stereo unspecified) | -0.446 |
| CCCS(=O)(=O)N1CCC(C(=O)N2CCC(Cc3ccccc3)CC2)CC1 | -0.0167 |
| CC(=O)Nc1sc2c(c1CN1CCN(c3ccccn3)CC1)CCCC2 | -0.452 |
| CC(C)C(NC(=O)COc1ccc2ccccc2c1)C(=O)N/N=C/C=C/c1ccccc1 (stereo unspecified) | -0.0376 |
| Cc1cc(C(=O)Nc2sc(C)c(C)c2C#N)no1 | 1.33 |
| O=C(NCC1CCCO1)NC1(C(F)(F)F)Oc2ccccc2O1 (stereo unspecified) | 0.0113 |
| COc1cccc(C(=O)Nc2cc(NC(=O)c3ccco3)ccc2OC)c1 | -0.489 |
| CCCSc1nc2c(cnn2-c2ccc(C)cc2)c(=O)[nH]1 | -0.413 |
| Cc1ccc(C(=O)O)cc1S(=O)(=O)NCC1CCCO1 (stereo unspecified) | -0.726 |
| COc1ccc(NC(=O)c2ccc(COc3ccccc3)o2)cc1 | -0.00337 |
| COC1CCCCC1Nc1cc(C)cc(C)c1 (stereo unspecified) | -0.0687 |
| O=C(O)c1cnc(-c2ccccc2)nc1Sc1ccccc1Cl | active: -4.52 |
| Cc1nc(-c2cccc(S(=O)(=O)N3CCCCCC3)c2)cs1 | -0.195 |
| COc1cc(-c2nc(S(=O)(=O)c3ccc(C)cc3)c(N(C)C)o2)cc(OC)c1OC | -0.304 |
| Cc1cccc2nc(CSc3nc4ccc([N+](=O)[O-])cc4[nH]3)cn12 | -0.276 |

| Compound | z-score |
| --- | --- |
| COc1ccc(C)cc1S(=O)(=O)Nc1ccccc1C | -0.428 |
| CCOc1nc(C)ccc1-c1noc(CC)n1 | -0.223 |
| CC(=O)c1cc(C#N)c(SCc2ccccc2)nc1C | -0.00473 |
| CCOc1cc(NS(=O)(=O)c2ccccc2)c(OCC)cc1NC(=O)c1ccco1 | -0.135 |
| CCC(=O)OCCn1c(Br)nc2c1c(=O)[nH]c(=O)n2C | -0.265 |
| COc1ccc(CNC(=O)C2CCN(C(=O)N(C)C)CC2)c(OC)c1 | 0.302 |
| Cc1cccc(CCNC(=O)CCc2nc(-c3ccccc3F)no2)c1 | 0.68 |
| COc1ccc(Cc2nnc(SCC(=O)Nc3ncc(C)s3)o2)cc1 | 0.0295 |
| CC(=O)c1ccc(Nc2c3c(c(C#N)c4nc5ccccc5n24)CCC3)cc1 | -0.15 |
| Cc1ccc(/C=C2/NC(=O)N(c3ccccc3)C2=O)o1 | 0.187 |
| COC(=O)C1=C(C)N(C)C(C)=C(C(=O)OC)C1c1ccc(C(=O)OC)cc1 | -0.73 |
| CCOC(=O)C1CCCN(C(=O)c2cnn3c(C(F)F)cc(-c4ccc(C)cc4)nc23)C1 (stereo unspecified) | -0.0995 |
| COc1ccc(Oc2nc(C)nc3c2oc2ccccc23)cc1 | -0.407 |
| CCC(C)[C@H](NC(=O)NCCCc1ccccc1)C(=O)OC (stereo partly specified) | -0.43 |
| COc1cc(OC)c(OC)cc1/C=N/NC(=S)NCC1CCCO1 (stereo unspecified) | 0.146 |
| COC(=O)c1cc(NC(=O)Nc2ccccc2OC)cc(C(=O)OC)c1 | -0.192 |
| Nc1nc(SCC(=O)NN(c2ccccc2)c2ccccc2)n[nH]1 | -0.0519 |
| O=[N+]([O-])c1cc(S(=O)(=O)N2CCCC2)ccc1N/N=C1/CCCc2ccccc21 | -0.262 |
| Cc1cc(C)n(C(=O)CNc2ccccc2Cl)n1 | 0.0593 |
| Cc1ccc(C(=O)NCC(C)(C)N2CCOCC2)s1 | 0.515 |
| CCCNc1cc(=O)n(C)c(=O)n1C | -0.217 |
| Cc1ccc(-c2cc(-c3nnc(SCC(=O)NCC(C)C)n3N)c3ccccc3n2)cc1 | -0.605 |
| COC(=O)c1sc(N2C(=O)C(O)=C(C(=O)c3ccc(C)o3)C2c2ccc(F)cc2)nc1C (stereo unspecified) | -0.787 |

| Compound | z-score |
| --- | --- |
| CC(C)(C)c1ccc(NC(=O)CSc2nnc(-c3n[nH]c4ccccc34)o2)cc1 | -0.181 |
| O=C(COc1ncnc2c(Cl)cc(Cl)cc12)NCCC1=CCCCC1 | -0.073 |
| CCCCOCCCNC(=O)CN1C(=O)c2ccccc2C1=O | 0.016 |
| CC(Oc1ccccc1)c1ccnn1S(=O)(=O)c1ccccc1 (stereo unspecified) | -0.666 |
| Cc1ccc(N2CCN(C(=O)c3ccccc3NC(=O)C3CC=CCC3C(=O)O)CC2)cc1 (stereo unspecified) | -0.339 |
| CC(=O)NCCc1ccc(S(=O)(=O)N2CCCC2)cc1 | -0.316 |
| Cc1ccccc1NC(=O)NC1(C(=O)NCCCN2CCOCC2)CCCCC1 | -0.494 |
| C=CCn1c(NC(=O)c2ccc(Br)o2)c(S(=O)(=O)c2ccccc2)c2nc3ccccc3nc21 | -0.0755 |
| N#Cc1ccc(-n2nccc2-c2cnc3n(c2=O)CCS3)cc1 | 0.18 |
| CCOC(=O)C1=c2s/c(=C\c3cccnc3)c(=O)n2C(N)=C(C(=O)OC)C1c1cccnc1 (stereo unspecified) | 0.984 |
| CSc1ccc2[nH]c(=O)cc(C)c2c1 | -0.124 |
| CCOC(=O)N1CCN(c2c(-c3ccc(C(C)C)cc3)c(=O)c2=O)CC1 | -0.0283 |
| CCn1c(-c2ccc(F)cc2)cnc1SCC(=O)N1CCCCC1C (stereo unspecified) | -0.0837 |
| CCOCCCn1cnc2c(c1=O)c1nc3ccccc3nc1n2-c1ccccc1 | 0.113 |
| CCOC(=O)c1ccccc1NC(=O)c1ccc(N(C)S(C)(=O)=O)cc1 | -0.303 |
| CC(=NCC1CCCO1)C1=C(O)CC(C)(C)CC1=O (stereo unspecified) | 0.0595 |
| CNC(=S)NNC(=O)c1cccn(Cc2cccc(Cl)c2)c1=O | -0.271 |
| COc1ccccc1-n1cnc2c(c1=O)c1nc3ccccc3nc1n2-c1ccc(C)c(C)c1 | -0.142 |
| COC(=O)c1cccc(-n2nnnc2SCC(=O)Nc2nc3c(s2)CCCC3)c1 | -0.637 |
| O=C(Nc1ccc2c(c1)C(=O)N(c1ccccc1)C2=O)C1CCCO1 (stereo unspecified) | -0.0825 |
| Cc1ccc(NCCC(=O)c2ccc(Cl)c(Cl)c2)cc1 | -0.39 |
| COC(=O)C(Cc1c[nH]c2ccccc12)NC(=O)CNC(C)=O (stereo unspecified) | -0.137 |
| COC(=O)c1scc(C)c1N/N=C(\C)c1ccc(F)cc1F | -0.0374 |

| Compound | z-score |
| --- | --- |
| O=C(Nc1nc(-c2ccc(-c3ccccc3)cc2)cs1)c1cnccn1 | 0.18 |
| CC(OC(=O)c1nsc(Cl)c1Cl)C(=O)NC(C)(C)C (stereo unspecified) | 0.181 |
| Cc1ccccc1NS(=O)(=O)c1ccc(OCC(=O)NCc2ccco2)cc1 | -0.304 |
| O=C(NCCc1c[nH]c2ccccc12)Nc1cccc2ccccc12 | -0.627 |
| CC(C)NC(=O)c1cc2nc(-c3ccco3)cc(C(F)(F)F)n2n1 | -0.419 |
| COc1cc(C(=O)Nc2ccc3c(c2)OCCO3)ccc1-n1cnnn1 | -1.24 |
| CC(C)OC(=O)CSc1nnc(-c2ccccc2)n1N | -0.106 |
| CCS(=O)(=O)N1CCN(c2ccc([N+](=O)[O-])c(NC(C)c3ccccc3)c2)CC1 (stereo unspecified) | -1.02 |
| O=C(CNS(=O)(=O)c1ccccc1)N1CCN(c2ccccc2)CC1 | -0.0656 |
| O=C(C[n+]1ccc(-c2nnc3n2CCC3)cc1)c1ccc(Cl)cc1 | -0.128 |
| Cc1ccc(-n2ncc3c(=O)n(CC(=O)Nc4cccc(Cl)c4)cnc32)cc1C | -1.6 |
| O=C(COC(=O)C1CC(O)CN1S(=O)(=O)c1ccc(Cl)cc1)c1ccccc1Cl (stereo unspecified) | 0.661 |
| Cc1ccc(CNC(N)=S)cc1 | 0.0494 |
| COc1ccc(S(=O)(=O)Nc2c3ccccc3nc(=O)n2-c2ccccc2)cc1 | -0.244 |
| COc1ccccc1NC(=O)Nc1nnc(C(C)C)s1 | -0.0837 |
| CCCCn1c(/N=C/c2ccccc2NS(=O)(=O)c2ccc(C)cc2)nc2ccccc21 | -0.153 |
| CCCNc1nc(N)nc(-c2cc(Cl)ccc2OC)n1 | -0.121 |
| COc1ccc(N/C(N)=N/c2nc(CSc3ccc(C)cc3)cc(=O)[nH]2)cc1 | 0.674 |
| COc1ccc(C(=O)c2coc3ccc(O)c(CN4CCCCC4)c23)cc1 | 0.0413 |
